Values marked as one replicate rest on one cluster of the flow cell; about a third of the high ones do not repeat.
Tested on: ATP
Assay: switch fluorescence ratio, 500 uM ATP over buffer (Cy3 cluster intensity, sum of 5 cycles each) (fold (ratio)); higher = stronger signal-on switching upon ATP binding; sequences stand for … in TCGTCGGCAGCGTCAGATGTGTATAAGAGACAGTTTTTTTTTTTTTTTTTTTTTTTTT…TC
Details: aptamer strand: ATP DNA aptamer (quencher-CACCTGGGGGAGTATTGCGGAGGAAGG + anchor), 100 nM annealed; ATP concentration: 500 uM; one replicate
In short: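 After annealing to 100 nM quencher-labelled ATP aptamer, Cy3-labelled switching-strand clusters on a modified Illumina MiSeq flow-cell were imaged in selection buffer. A second image followed after 15 min with 500 uM ATP at 22 °C, and five such buffer/ATP cycles were done, each separated by NaOH stripping and re-annealing. The fluorescence ratio, averaged per switch-domain sequence, is summed target-cycle over summed buffer-cycle Cy3 intensity per cluster, with clusters outside 100-1000 RFU excluded.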
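Further: ATP exposure 15 min at 22 °C before imaging.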

| Sequence | switch fluorescence ratio |
| --- | --- |
| CAGTTAAATT | 1.01 |
| CAGTTAACCG | 0.969 |
| CAGTTAATCT | 1.05 |
| CAGTTAATGT | 1 |
| CAGTTAGCA | 1.02 |
| CAGTTAGCGT | 0.94 |
| CAGTTAGTTT | 0.96 |
| CAGTTCGCCG | 1.04 |
| CAGTTGAC | 1.05 |
| CAGTTGGCCC | 1.01 |
| CAGTTGGTGA | 1.03 |
| CAGTTTGTAA | 1.01 |
| CAGTTTGTAT | 0.939 |
| CATAAAAAGT | 1.02 |
| CATAAAGACA | 0.997 |
| CATAACTATG | 0.97 |
| CATACCATT | 1.04 |
| CATACCATTG | 0.992 |
| CATACGCAGC | 4.63 |
| CATACTGTTA | 1.05 |
| CATACTTGTG | 1 |
| CATACTTTG | 0.975 |
| CATAGACACG | 1.01 |
| CATAGACTC | 1.02 |
| CATAGCACGG | 1.03 |

| Sequence | switch fluorescence ratio |
| --- | --- |
| CATAGCACT | 1.16 |
| CATAGGAAAG | 1 |
| CATAGGCTC | 0.993 |
| CATAGTGGCC | 1.03 |
| CATAGTGGTT | 0.977 |
| CATAGTTCTT | 1.04 |
| CATATAACGC | 0.998 |
| CATATATAGA | 0.97 |
| CATATGCATG | 1.06 |
| CATATGCCGG | 1.05 |
| CATATGCGGT | 1.01 |
| CATCAGAAGC | 1.01 |
| CATCAGACCC | 1.03 |
| CATCAGCGTC | 1.99 |
| CATCATAGTC | 1.18 |
| CATCATTTCG | 1.02 |
| CATCCATTAA | 1.04 |
| CATCCCAAAA | 1.63 |
| CATCCCCGCC | 2.46 |
| CATCCGTGAA | 3.58 |
| CATCCTCTTA | 1.03 |
| CATCCTTGCT | 1.11 |
| CATCGAGGGT | 1.04 |
| CATCGCACGG | 1.33 |
| CATCGCCGA | 1.06 |

| Sequence | switch fluorescence ratio |
| --- | --- |
| CATCGGAATA | 1.89 |
| CATCGGGCCT | 1.04 |
| CATCGTAAGA | 1.01 |
| CATCGTTGAC | 1.11 |
| CATCTAGCGA | 2 |
| CATCTAGGTG | 1.78 |
| CATCTAGTGT | 1.01 |
| CATCTCAAAG | 1.03 |
| CATCTGACAG | 1.07 |
| CATGAAAAAA | 1.09 |
| CATGAACTGG | 1.01 |
| CATGAAGAGG | 0.966 |
| CATGAAGGGC | 1.02 |
| CATGAATTCT | 0.988 |
| CATGACACTA | 1.09 |
| CATGACTTAG | 1.04 |
| CATGAGGAAA | 0.986 |
| CATGATAGC | 1.02 |
| CATGATCAT | 0.949 |
| CATGATCGAG | 1.03 |
| CATGCACACG | 1.05 |
| CATGCATTAG | 1.12 |
| CATGCGTATC | 1.15 |
| CATGCGTCTG | 0.956 |
| CATGCTGAAG | 0.993 |

| Sequence | switch fluorescence ratio |
| --- | --- |
| CATGGAAGTA | 1 |
| CATGGACAGT | 1.02 |
| CATGGACCCG | 0.967 |
| CATGGAGTGG | 0.958 |
| CATGGATGTG | 0.992 |
| CATGGCTTCC | 2.16 |
| CATGGGATGT | 1.07 |
| CATGGGGAGG | 1.01 |
| CATGGTAAAG | 1.02 |
| CATGGTCTGG | 0.994 |
| CATGTAATA | 1.03 |
| CATGTAGGCG | 0.915 |
| CATGTCAGGG | 0.987 |
| CATGTCCCCG | 1.07 |
| CATGTCTGT | 0.985 |
| CATGTGGCAA | 1.53 |
| CATGTTGCGG | 0.993 |
| CATTAAACGG | 1.01 |
| CATTAACCAA | 0.969 |
| CATTAACGTG | 1.02 |
| CATTAAGCGC | 0.968 |
| CATTAAGTAG | 1.01 |
| CATTAATATC | 1.03 |
| CATTACGGAG | 1.05 |
| CATTCACGTA | 1.17 |
